In test [1] the target is T1, ASGR1 antigen (Homo sapiens (Human), UniProt P07306 62-291, Biotinylated for capture on streptavidin sensors; the site and manner of biotinylation are not stated in the passages seen.).
T1 construct: also called biotinylated ASGR1
T1 sequence: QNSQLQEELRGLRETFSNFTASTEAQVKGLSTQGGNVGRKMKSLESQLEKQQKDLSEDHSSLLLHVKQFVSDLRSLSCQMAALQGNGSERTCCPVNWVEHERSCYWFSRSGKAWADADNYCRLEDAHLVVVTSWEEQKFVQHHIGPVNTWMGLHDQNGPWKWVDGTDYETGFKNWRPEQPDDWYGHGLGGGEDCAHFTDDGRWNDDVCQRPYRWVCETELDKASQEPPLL
As to the kind of experiment: binding to ASGR1 antigen (Octet binding per paragraph 285/paragraph 287; method not printed on the sheet).

Test [2] deals with T1, ASGR1 antigen. As to the kind of experiment: BLI, Octet Red96e, biotinylated ASGR1 on streptavidin sensors, bivalent analyte model; Full R^2 0.9987. The text has this: (§1) FIGS. 39A-C show binding of various Wnt signal enhancing molecules comprising the indicated combinations of point mutations as compared to the initial αASGR1-RSPO2 Wnt signaling enhancer molecule (NG or “wild type”). FIG. 39A is a table showing kinetic fir parameters from the data in FIGS. 39B and 39C. Data was fit using the bivalent analyte model in the ForteBIO Data Analysis Software. FIGS. 39B-39C provide data from serial dilutions of the various Wnt signal enhancing molecules tested for binding using biotinylated ASGR1 captured on streptavidin sensors using the Octet Red96e.
On the technique in general: Biolayer interferometry detects binding as a change in optical thickness at a sensor tip.

Test [3] concerns the target T1, ASGR1 antigen. As to the kind of experiment: ASGR1 binding assay, loading sample bio-ASGR1; kdis(1/s); Full R^2 0.9987.
Test [4] addresses T1, ASGR1 antigen. As to the kind of experiment: ASGR1 binding assay, loading sample bio-ASGR1; Full R^2 0.9987.
Test [5] addresses T1, ASGR1 antigen. As to the kind of experiment: BLI, Octet Red96e, biotinylated ASGR1 on streptavidin sensors, bivalent analyte model; kdis(1/s); Full R^2 0.9987.
From the text: as §1

B1: 1R34-DDNN/RA (other)
light: SSELTQDPAVSVALGQTVRITCQGDSLRSYYASWYQQKPGQAPVLVIYGKNNRPSGIPDRFSGSSSGNTASLTITGAQAEDEADYYCNSLERIGYLSYVFGGGTKLTVLGQPKAAPSVTLFPPSSEELQANKATLVCLISDFYPGAVTVAWKADSSPVKAGVETTTPSKQSNNKYAASSYLSLTPEQWKSHRSYSCQVTHEGSTVEKTVAPTECS
heavy: NPICKGCLSCSKDNGCSRCQQKLFFFLRREGMRQYGECLHSCPSGYYGHRAPDMNRCARCRIENCDSCRSKDACTKCKVGFYLHRGRCFDECPDGFAPLEETMECVEGGGGSGSGGSGGGGS[… about 100 residues …][… about 120 residues …][… human IgG1 Fc with changes …]
notes: Anti-ASGR1 IgG1 (N297G) with modified human RSPO2 (F105R, F109A) fused through a linker to the N-terminus of each heavy chain; the heavy entry is the whole fusion; also called NG; wild type
For B1, the Kd in the test with ASGR1 antigen [1] is 7.67 nM; with ASGR1 antigen [2] it was 31.3 nM; in the test with ASGR1 antigen [4], 31.3 nM. Moreover, the koff (usually a measure of how fast the partners let go of each other) with ASGR1 antigen [1] turned out to be 0.00181 s⁻¹; with ASGR1 antigen [3] it was 0.00789 s⁻¹; in the test with ASGR1 antigen [5], 0.00789 s⁻¹. Also, the kon (usually the second-order rate constant of association) with ASGR1 antigen [1] stood at 236000 M⁻¹ s⁻¹; with ASGR1 antigen [2], 253000 M⁻¹ s⁻¹; with ASGR1 antigen [4], 253000 M⁻¹ s⁻¹.

The values are drawn from patent US20230374090A1 (SURROZEN OPERATING, published 2023).
